In US20240358826A1 (ORIONIS BIOSCIENCES, published 2024):

T1: IL-1R (IL-1 Receptor) (UniProt P14778 18-569, limits assumed)
T1 sequence (looked up): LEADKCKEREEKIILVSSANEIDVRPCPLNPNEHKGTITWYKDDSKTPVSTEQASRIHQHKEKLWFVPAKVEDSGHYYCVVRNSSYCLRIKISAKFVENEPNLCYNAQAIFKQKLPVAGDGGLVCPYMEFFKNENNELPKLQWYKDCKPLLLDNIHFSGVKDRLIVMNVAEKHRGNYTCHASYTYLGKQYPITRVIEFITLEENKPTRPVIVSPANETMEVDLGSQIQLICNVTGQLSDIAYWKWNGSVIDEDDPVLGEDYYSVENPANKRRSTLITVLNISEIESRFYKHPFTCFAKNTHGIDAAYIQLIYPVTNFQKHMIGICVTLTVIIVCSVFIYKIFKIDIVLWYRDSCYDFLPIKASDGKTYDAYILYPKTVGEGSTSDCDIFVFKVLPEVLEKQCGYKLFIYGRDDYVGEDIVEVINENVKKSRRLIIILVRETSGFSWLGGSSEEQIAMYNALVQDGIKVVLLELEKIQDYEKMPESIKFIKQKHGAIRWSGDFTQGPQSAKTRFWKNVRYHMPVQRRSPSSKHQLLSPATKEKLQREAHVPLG

B1: CD8 VHH_5GGS_Fc_hole + Fc-knob_20GGS_IL1α delta 1-6_A44S (Fc fusion)
chain 1: DVQLQESGGGLVQPGGSLRLSCAASGSIFSINVMGWYRQTPGKERELVAKITNFGITSYADSAQGRFTISRGNAKNTVYLQMNSLKPEDTAVYYCNLDTTGWGPPPYQYWGQGTQVTVSSGGSGGSGGSGGSGGSDKTHTCPPCPAPEAAGGPSVFLFPPKPKDTLMISRTPEVTCVVVDVSHEDPEVKFNWYVDGVEVHNAKTKPREEQYNSTYRVVSVLTVLHQDWLNGKEYKCQVSNKALPAPIEKTISKAKGQPREPQVCTLPPSRDELTKNQVSLSCAVKGFYPSDIAVEWESNGQPENNYKTTPPVLDSDGSFFLVSKLTVDKSRWQQGNVFSCSVMHEALHNHYTQKSLSLSPGK
chain 2: [letters of human IgG1 Fc with changes not shown]GGSGGSGGSGGSGGSGGSGGSGGSGGSGGSGGSGGSGGSGGSGGSGGSGGSGGSGGSGGSLSNVKYNFMRIIKYEFILNDALNQSIIRANDQYLTAASLHNLDEAVKFDMGAYKSSKDDAKITVILRISKTQLYVTAQDEDQPVLLKEMPEIPKTITGSETNLLFFWETHGTKNYFTSVAHPNLFIATKQDYWVCLAGGPPSITDFQILENQA
B2: CD8 VHH_5GGS_Fc_hole + Fc-knob_20GGS_IL1α delta 1-6_Q136A (Fc fusion)
chain 1: B1 chain 1
chain 2: [letters of human IgG1 Fc with changes not shown]GGSGGSGGSGGSGGSGGSGGSGGSGGSGGSGGSGGSGGSGGSGGSGGSGGSGGSGGSGGSLSNVKYNFMRIIKYEFILNDALNQSIIRANDQYLTAAALHNLDEAVKFDMGAYKSSKDDAKITVILRISKTQLYVTAQDEDQPVLLKEMPEIPKTITGSETNLLFFWETHGTKNYFTSVAHPNLFIATKADYWVCLAGGPPSITDFQILENQA
B3: CD8 VHH_5GGS_Fc_hole + Fc-knob_20GGS_IL1α delta 1-6_A58F (Fc fusion)
chain 1: B1 chain 1
chain 2: [letters of human IgG1 Fc with changes not shown]GGSGGSGGSGGSGGSGGSGGSGGSGGSGGSGGSGGSGGSGGSGGSGGSGGSGGSGGSGGSLSNVKYNFMRIIKYEFILNDALNQSIIRANDQYLTAAALHNLDEAVKFDMGFYKSSKDDAKITVILRISKTQLYVTAQDEDQPVLLKEMPEIPKTITGSETNLLFFWETHGTKNYFTSVAHPNLFIATKQDYWVCLAGGPPSITDFQILENQA
B4: CD8 VHH_5GGS_Fc_hole + Fc-knob_20GGS_IL1α delta 1-6_I33A (Fc fusion)
chain 1: B1 chain 1
chain 2: [letters of human IgG1 Fc with changes not shown]GGSGGSGGSGGSGGSGGSGGSGGSGGSGGSGGSGGSGGSGGSGGSGGSGGSGGSGGSGGSLSNVKYNFMRIIKYEFILNDALNQSIARANDQYLTAAALHNLDEAVKFDMGAYKSSKDDAKITVILRISKTQLYVTAQDEDQPVLLKEMPEIPKTITGSETNLLFFWETHGTKNYFTSVAHPNLFIATKQDYWVCLAGGPPSITDFQILENQA
B5: CD8 VHH_5GGS_Fc_hole + Fc-knob_20GGS_IL1α delta 1-6_A58S (Fc fusion)
chain 1: B1 chain 1
chain 2: [letters of human IgG1 Fc with changes not shown]GGSGGSGGSGGSGGSGGSGGSGGSGGSGGSGGSGGSGGSGGSGGSGGSGGSGGSGGSGGSLSNVKYNFMRIIKYEFILNDALNQSIIRANDQYLTAAALHNLDEAVKFDMGSYKSSKDDAKITVILRISKTQLYVTAQDEDQPVLLKEMPEIPKTITGSETNLLFFWETHGTKNYFTSVAHPNLFIATKQDYWVCLAGGPPSITDFQILENQA
B6: CD8 VHH_5GGS_Fc_hole + Fc-knob_20GGS_IL1α delta 1-6_L28G (Fc fusion)
chain 1: B1 chain 1
chain 2: [letters of human IgG1 Fc with changes not shown]GGSGGSGGSGGSGGSGGSGGSGGSGGSGGSGGSGGSGGSGGSGGSGGSGGSGGSGGSGGSLSNVKYNFMRIIKYEFILNDAGNQSIIRANDQYLTAAALHNLDEAVKFDMGAYKSSKDDAKITVILRISKTQLYVTAQDEDQPVLLKEMPEIPKTITGSETNLLFFWETHGTKNYFTSVAHPNLFIATKQDYWVCLAGGPPSITDFQILENQA
B7: CD8 VHH_5GGS_Fc_hole + Fc-knob_20GGS_IL1α delta 1-6_K60G (Fc fusion)
chain 1: B1 chain 1
chain 2: [letters of human IgG1 Fc with changes not shown]GGSGGSGGSGGSGGSGGSGGSGGSGGSGGSGGSGGSGGSGGSGGSGGSGGSGGSGGSGGSLSNVKYNFMRIIKYEFILNDALNQSIIRANDQYLTAAALHNLDEAVKFDMGAYGSSKDDAKITVILRISKTQLYVTAQDEDQPVLLKEMPEIPKTITGSETNLLFFWETHGTKNYFTSVAHPNLFIATKQDYWVCLAGGPPSITDFQILENQA
B8: CD8 VHH_5GGS_Fc_hole + Fc-knob_20GGS_IL1α delta 1-6_A58T (Fc fusion)
chain 1: B1 chain 1
chain 2: [letters of human IgG1 Fc with changes not shown]GGSGGSGGSGGSGGSGGSGGSGGSGGSGGSGGSGGSGGSGGSGGSGGSGGSGGSGGSGGSLSNVKYNFMRIIKYEFILNDALNQSIIRANDQYLTAAALHNLDEAVKFDMGTYKSSKDDAKITVILRISKTQLYVTAQDEDQPVLLKEMPEIPKTITGSETNLLFFWETHGTKNYFTSVAHPNLFIATKQDYWVCLAGGPPSITDFQILENQA
B9: CD8 VHH_5GGS_Fc_hole + Fc-knob_20GGS_IL1α delta 1-6_A44H (Fc fusion)
chain 1: B1 chain 1
chain 2: [letters of human IgG1 Fc with changes not shown]GGSGGSGGSGGSGGSGGSGGSGGSGGSGGSGGSGGSGGSGGSGGSGGSGGSGGSGGSGGSLSNVKYNFMRIIKYEFILNDALNQSIIRANDQYLTAAHLHNLDEAVKFDMGAYKSSKDDAKITVILRISKTQLYVTAQDEDQPVLLKEMPEIPKTITGSETNLLFFWETHGTKNYFTSVAHPNLFIATKQDYWVCLAGGPPSITDFQILENQA
B10: CD8 VHH_5GGS_Fc_hole + Fc-knob_20GGS_IL1α delta 1-6_A58G (Fc fusion)
chain 1: B1 chain 1
chain 2: [letters of human IgG1 Fc with changes not shown]GGSGGSGGSGGSGGSGGSGGSGGSGGSGGSGGSGGSGGSGGSGGSGGSGGSGGSGGSGGSLSNVKYNFMRIIKYEFILNDALNQSIIRANDQYLTAAALHNLDEAVKFDMGGYKSSKDDAKITVILRISKTQLYVTAQDEDQPVLLKEMPEIPKTITGSETNLLFFWETHGTKNYFTSVAHPNLFIATKQDYWVCLAGGPPSITDFQILENQA
B11: CD8 VHH_5GGS_Fc_hole + Fc-knob_20GGS_IL1α delta 1-6_A44N (Fc fusion)
chain 1: B1 chain 1
chain 2: [letters of human IgG1 Fc with changes not shown]GGSGGSGGSGGSGGSGGSGGSGGSGGSGGSGGSGGSGGSGGSGGSGGSGGSGGSGGSGGSLSNVKYNFMRIIKYEFILNDALNQSIIRANDQYLTAANLHNLDEAVKFDMGAYKSSKDDAKITVILRISKTQLYVTAQDEDQPVLLKEMPEIPKTITGSETNLLFFWETHGTKNYFTSVAHPNLFIATKQDYWVCLAGGPPSITDFQILENQA
B12: CD8 VHH_5GGS_Fc_hole + Fc-knob_20GGS_IL1α delta 1-6_H46A (Fc fusion)
chain 1: B1 chain 1
chain 2: [letters of human IgG1 Fc with changes not shown]GGSGGSGGSGGSGGSGGSGGSGGSGGSGGSGGSGGSGGSGGSGGSGGSGGSGGSGGSGGSLSNVKYNFMRIIKYEFILNDALNQSIIRANDQYLTAAALANLDEAVKFDMGAYKSSKDDAKITVILRISKTQLYVTAQDEDQPVLLKEMPEIPKTITGSETNLLFFWETHGTKNYFTSVAHPNLFIATKQDYWVCLAGGPPSITDFQILENQA
B13: CD8 VHH_5GGS_Fc_hole + Fc-knob_20GGS_IL1α delta 1-6_N25A (Fc fusion)
chain 1: B1 chain 1
chain 2: [letters of human IgG1 Fc with changes not shown]GGSGGSGGSGGSGGSGGSGGSGGSGGSGGSGGSGGSGGSGGSGGSGGSGGSGGSGGSGGSLSNVKYNFMRIIKYEFILADALNQSIIRANDQYLTAAALHNLDEAVKFDMGAYKSSKDDAKITVILRISKTQLYVTAQDEDQPVLLKEMPEIPKTITGSETNLLFFWETHGTKNYFTSVAHPNLFIATKQDYWVCLAGGPPSITDFQILENQA

target: T1, IL-1R (IL-1 Receptor); assay: cell-based or functional assay

| NF-KB signal, -CD8 cells, 1 ng/ml | NF-KB signal, -CD8 cells, 10 ng/ml | NF-KB signal, -CD8 cells, 100 ng/ml | NF-KB signal, -CD8 cells, 1000 ng/ml | Binder |
| --- | --- | --- | --- | --- |
| 0.01 rel. to 100 ng/ml IL1α | 0.02 rel. to 100 ng/ml IL1α | 0.12 rel. to 100 ng/ml IL1α | 0.97 rel. to 100 ng/ml IL1α | B1 |
| 0.01 rel. to 100 ng/ml IL1α | 0.02 rel. to 100 ng/ml IL1α | 0.11 rel. to 100 ng/ml IL1α | 0.85 rel. to 100 ng/ml IL1α | B2 |
| 0.01 rel. to 100 ng/ml IL1α | 0.02 rel. to 100 ng/ml IL1α | 0.11 rel. to 100 ng/ml IL1α | 0.69 rel. to 100 ng/ml IL1α | B3 |
| 0.02 rel. to 100 ng/ml IL1α | 0.01 rel. to 100 ng/ml IL1α | 0.07 rel. to 100 ng/ml IL1α | 0.64 rel. to 100 ng/ml IL1α | B4 |
| 0.01 rel. to 100 ng/ml IL1α | 0.01 rel. to 100 ng/ml IL1α | 0.09 rel. to 100 ng/ml IL1α | 0.78 rel. to 100 ng/ml IL1α | B5 |
| 0.01 rel. to 100 ng/ml IL1α | 0.03 rel. to 100 ng/ml IL1α | 0.2 rel. to 100 ng/ml IL1α | 1.02 rel. to 100 ng/ml IL1α | B6 |
| 0.02 rel. to 100 ng/ml IL1α | 0.02 rel. to 100 ng/ml IL1α | 0.13 rel. to 100 ng/ml IL1α | 0.79 rel. to 100 ng/ml IL1α | B7 |
| 0.02 rel. to 100 ng/ml IL1α | 0.02 rel. to 100 ng/ml IL1α | 0.05 rel. to 100 ng/ml IL1α | 0.64 rel. to 100 ng/ml IL1α | B8 |
| 0.01 rel. to 100 ng/ml IL1α | 0.02 rel. to 100 ng/ml IL1α | 0.18 rel. to 100 ng/ml IL1α | 1.03 rel. to 100 ng/ml IL1α | B9 |
| 0.02 rel. to 100 ng/ml IL1α | 0.02 rel. to 100 ng/ml IL1α | 0.1 rel. to 100 ng/ml IL1α | 0.83 rel. to 100 ng/ml IL1α | B10 |
| 0.01 rel. to 100 ng/ml IL1α | 0.01 rel. to 100 ng/ml IL1α | 0.12 rel. to 100 ng/ml IL1α | 0.86 rel. to 100 ng/ml IL1α | B11 |
| 0.01 rel. to 100 ng/ml IL1α | 0.02 rel. to 100 ng/ml IL1α | 0.01 rel. to 100 ng/ml IL1α | 0.23 rel. to 100 ng/ml IL1α | B12 |
| 0.02 rel. to 100 ng/ml IL1α | 0.01 rel. to 100 ng/ml IL1α | 0.14 rel. to 100 ng/ml IL1α | 0.75 rel. to 100 ng/ml IL1α | B13 |
